Data on 8 molecules can be found in the supplement of paper PMC12632987.

The full ranking holds about 2,300 sequences; the median of “median log2 fold change of GCK-ALFA target abundance (FLAG IP / Myc IP barcode read proportion)” is about 0.095, and the lowest 2% start at about -0.47. The list shows a part of the results.

The chains are these.
B1: LC3A_28_964 (protein)
chain: SELEEQLKKVLEEAKEAAAKGEAKVFTITVPGTADEEDIEKVIKTIREIAELLKDVKGSAIIVSVEAGVKQEHIDKLVDTLEEIEKKYPNITAILALDED
B2: LC3A_28_1055 (protein)
chain: SAVEEQIKKALEEAKELAAKGEEALIEIEIEEDDTEEDVEKKLKTIEEIAEINKDLPSTSIIVNVNNKNKEEVTKKFADLGDELEKKYPNVTVIIALSEE
B3: LC3A_28_1013 (protein)
chain: MSIVEETKKKIEEALKEAEKGEDAYLEVEITSEATQEEVEEVLELIEKAAKEVSKLPNVKLYVVIYDDSNQENHQLIVDAADRIEEKYPNVHVIVAYDDE
B4: LC3A_28_979 (protein)
chain: SALEKELAAKIAEAKKAAAAGEPAVITIKVSGDTNEEQLAKIIETLEEIAEILKDVKGSAIIIDIDRGVDPKHKQKLIDKGEEIEKKYPNVTVIFALEEE
B5: LC3A_28_1040 (protein)
chain: SALEAAAAAALAEAEEQLAAGDEAVVTLTVTDTPTDEAAATVAAFLAAARELSARYGGKKIYVVIDYDGDQDTLDALADIADEAEAADPNLTVIIAYDDK
B6: LC3A_28_1160 (protein)
chain: SKIEESIAKARAEAEAAIAAGEPAVIELTVTPDATEEDVERVIKALEELAALGEKHGLLDILVNVEEGVKQEHINRIADAAEEIEKKYPKVTIIIALSEE
B7: LC3A_28_672 (protein)
chain: SALDEQLEAALKQAKELAAKGEAGVIVIKVPGDATEEEIERLIEALEEIAEILKDVKGAAIIIELDKDLKEEHRDRIIDAAEEINEKYPNVTVIIAEEER
B8: LC3A_3_1507 (protein)
chain: KEELIEELRKILEEMGASEEVIEKFEEALKKLLERGYEKAAEKLLELVKEMKDLSNELLLEFAEEVLELLEKGDLSEEELIEEIEKIAKITKSAGEIEEL

In the assay the target is MAP1LC3A, Q9H492. Kind of assay: median log2 fold change of GCK-ALFA target abundance (FLAG IP / Myc IP barcode read proportion) (log2 ratio); each designed protein is fused to an ALFA-tag nanobody in HEK293 cells to bring the named protein to FLAG-tagged glucokinase (GCK); Myc marks an untargeted standard; higher = target protein stabilised (more abundant). The note with it: target protein: 3xFLAG-MCP-GCK-ALFA reporter; HEK293 landing pad (RPLP). The essentials: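 Binders fused to an ALFA nanobody were recombined as a library into HEK293 landing-pad cells, which were induced with 2 μg mL^−1 doxycycline and then transfected to express a FLAG-tagged target and a Myc-tagged standard. After 48 h, circular RNA barcodes recovered by anti-FLAG and anti-Myc immunoprecipitation of lysates were reverse transcribed, amplified and sequenced. Each binder's target abundance is the median log2 ratio of FLAG to Myc barcode read proportions, from barcodes present at ≥10^−7 in both replicates, binders carrying ≥3 barcodes per replicate, a 10^−6 pseudocount and pooled replicates.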
For the molecule B1, the “median log2 fold change” value turned out to be 0.203. Next, B2: 0.0494; B3: -0.261; B4: -0.00812. Take B5: the “median log2 fold change” value is -0.0392.

As for B6, the “median log2 fold change” value was determined as 0.114.

Regarding B7, the “median log2 fold change” value came to 0.24. Take B8: the “median log2 fold change” value stood at 0.223.
